Assay results: US20190225647A1, “ANTIGENIC PEPTIDES FOR THE DIAGNOSIS, THERAPY MONITORING AND/OR TREATMENT OF PSORIASIS VULGARIS” (Ludwig-Maximilians-Universität München, priority 2015, published 2019)

Biological target: mouse CD3 on Vα3S1/Vβ13S1-TCR hybridoma cells (mouse)
Test: cell-based or functional assay

anti-mouse CD3 antibody (clone 17A2, eBioscience)
NFAT-sGFP-positive cells after CD3 stimulation (% NFAT-sGFP-positive cells): > 30
